The full ranking holds about 33,000 sequences; the median of “E-score (-0.5 to 0.5)” is about -0.016, and the highest 2% start at about 0.31. Some of the results follow.
biological target: Cst6 (UniProt P40535); experiment: PBM E-score (8-mer binding enrichment) (E-score (-0.5 to 0.5)); higher = stronger / more preferred TF binding; most listed sequences are background and not binding sites; conditions: protein concentration: 200 nM; construct: GST-DNA-binding domain
Method in brief: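 Full-length yeast transcription factors or their DNA-binding domains, GST-tagged and expressed with PURExpress, were applied at about 100-200 nM to universal all-10-mer Agilent arrays. These arrays had been made double-stranded by primer extension on fresh or once-stripped slides. Detection used fluorescent anti-GST, normalisation used masliner, and E-scores for ungapped eight-base words pooled with reverse complements came from the Universal PBM Analysis Suite.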

Row | Sequence | PBM E-score
1 | AACACGGG | -0.0396
2 | GGGTCATA | -0.0664
3 | ACAAATCC | -0.0329
4 | CCGTAAGC | -0.0303
5 | GTGGTCGA | -0.319
6 | AAGTGGTG | 0.0596
7 | CAGCCAAA | 0.0814
8 | CGCTTTCC | -0.112
9 | TAACGGCA | 0.197
10 | AACCTGCG | -0.183
11 | ACTCTTAA | -0.0462
12 | ACTCATGC | -0.0314
13 | ACACTCAC | 0.128
14 | CCGAGTCG | -0.203
15 | AATGCACA | 0.0752
16 | AGCTAATA | 0.0414
17 | CATCGGAA | 0.0499
18 | AACCCTTG | -0.266
19 | ATCAGGCG | 0.0843
20 | ATAACCGC | 0.118
21 | CGTTTAGC | 0.189
22 | AAATTGAG | 0.0582
23 | ATTAGCGG | -0.122
24 | CATAAACA | 0.301

Row | Sequence | PBM E-score
25 | ACAGGTCT | -0.17
26 | GTGGAAAC | 0.0801
27 | GAGTACAC | -0.0901
28 | CTAGGTTA | 0.103
29 | ACTACTGG | -0.0966
30 | ATCGAGGG | -0.0983
31 | CTGTCAGC | -0.0542
32 | CGCAACCC | -0.0121
33 | CTAGACTA | -0.103
34 | GCCAGTAC | -0.157
35 | CTTAAACA | 0.0866
36 | CTAGGGGC | -0.36
37 | GACTGGAC | -0.317
38 | CTTTAGTC | -0.128
39 | ATGCCGCG | 0.233
40 | GAGGTAGA | -0.298
41 | CGAATGCC | -0.165
42 | CCTCATCG | 0.00595
43 | CTTCAGAC | -0.169
44 | CTATGTTA | 0.147
45 | CCGTTTAC | 0.126
46 | CATGTACA | -0.0419
47 | GATTAGAA | -0.0374
48 | CTCGCATC | 0.00499

Row | Sequence | PBM E-score
49 | AGCATGAA | -0.00465
50 | ATGACCTC | 0.349
51 | AATGGTCT | 0.0149
52 | ACTCAGCG | -0.254
53 | GGGCAAGA | -0.0867
54 | CACGGCTC | 0.29
55 | GCGTACAA | 0.0167
56 | ACTATGCG | 0.00713
57 | CCTCGTTA | -0.0548
58 | GCGGCTTA | 0.00291
59 | GTCAAATA | 0.265
60 | CTTATATA | 0.3
61 | CGCACTTC | -0.0168
62 | AAATTACA | 0.244
63 | GAGTAGGA | -0.248
64 | CAACTAGA | 0.135
65 | AAGATATC | 0.0499
66 | CTATTTGC | -0.0426
67 | GTAGCCAC | -0.179
68 | GATGATGA | 0.319
69 | AAGATTTG | 0.133
70 | CAACGTCC | -0.263
71 | AAGATTGT | 0.112
72 | ATTACTCC | 0.12

Row | Sequence | PBM E-score
73 | AGGGGAAA | -0.192
74 | AACTGCGC | -0.0655
75 | CCGTGACG | 0.417
76 | AATTGGCG | 0.198
77 | GGTCTAAC | -0.171
78 | ACCACACG | 0.111
79 | GCCTGGTA | -0.162
80 | CATGGAGG | -0.123
81 | CTAGCGCC | -0.05
82 | TCGATTAA | 0.244
83 | AGTGCGCC | 0.0364
84 | CGGCTATA | 0.212
85 | AACCCCTT | -0.124
86 | CTCCAAAA | -0.108
87 | CAAGCACC | -0.316
88 | CTTACCTA | -0.0278
89 | GACTCGAC | -0.212
90 | GCCGAGAA | 0.00254
91 | AGTTTCTA | 0.0891
92 | CTTTCAGC | -0.0281
93 | ACGCATCC | -0.219
94 | CCTTTTGA | 0.104

Source: the supplement of paper PMC3334620
